We go through 42 sequences from PMC7819943, “Rice protein-binding microarrays: a tool to detect cis-acting elements near promoter regions in rice”.

The list shows a part of the results.

The experiment concerns the target T1, OsWOX13 (Oryza sativa, UniProt Q5QMM3 1-267).
T1 sequence: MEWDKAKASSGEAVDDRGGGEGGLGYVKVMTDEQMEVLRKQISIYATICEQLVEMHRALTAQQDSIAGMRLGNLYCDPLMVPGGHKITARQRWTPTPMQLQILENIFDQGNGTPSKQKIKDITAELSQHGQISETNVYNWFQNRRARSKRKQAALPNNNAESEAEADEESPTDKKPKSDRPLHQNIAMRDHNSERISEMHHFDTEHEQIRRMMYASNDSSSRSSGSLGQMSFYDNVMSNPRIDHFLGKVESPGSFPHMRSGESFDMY
The experiment in a line: protein-binding microarray (RPBM); PBS, 2% BSA, 51.3 ng/ul salmon testes DNA, 50 uM zinc acetate, 200 nM TF, 25 C, 1 h; high values mean tight binding. To be noted: protein: recombinant; tags: N-terminal polyhistidine and DsRed monomer fusion (pET32a); label: CyDye5-dUTP incorporated in the synthesized complementary strand; 3' TTTTT single-stranded linker to array surface; dsDNA, one strand shown. The gist of the method: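 A custom Agilent array was converted to double-stranded form by primer extension with Cy5-dUTP and blocked with 2% BSA. Protein at 200 nM in PBS with 2% BSA, salmon testes DNA and 50 µM zinc acetate was applied for 1 h at 25 °C, followed by washing. The proteins were polyhistidine–DsRed N-terminal fusions of transcription factors, expressed in E. coli BL21-CodonPlus and Ni–NTA-purified. The binding signal is per-feature fluorescence intensity (arbitrary units) from an Axon 4000B scanner.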
“GTCTAATTAATCCATGATTAGTTTATGTAATGCTACATTACGGAGTCACCTAGTGCAG”: the binding signal is 51700 fluorescence intensity (a.u.).

Consider “TCCAGTAATTATATTCCCTCCGTTTCAAAATATTTAACACCGGAGTCACCTAGTGCAG”, for which the binding signal is 15100 fluorescence intensity (a.u.). To “TTTGGATTGATTAATTCGTTGATAAGACTCGGATTCCGGACGGAGTCACCTAGTGCAG” belongs 47000 fluorescence intensity (a.u.). With “GGAAACCTAATTAACCCGGCCGCCGGTGGGTAGCTACTAGCGGAGTCACCTAGTGCAG”, the binding signal is 3210 fluorescence intensity (a.u.). To “GTGCCATTAATTTTGACTACTACTTGTGTGTCCTATCAAACGGAGTCACCTAGTGCAG” belongs 7280 fluorescence intensity (a.u.); to “TTTGAGTAAATTACATCTACAATACGTAAACTTGGGGTAGCGGAGTCACCTAGTGCAG”, 6650 fluorescence intensity (a.u.); to “ATAGTATTAACGTGATCTAATTTCATCCTACATTACTGTACGGAGTCACCTAGTGCAG”, 3940 fluorescence intensity (a.u.). For “AATCCTAAAATTACATACTAATTACATATGTAAGTGACGTCGGAGTCACCTAGTGCAG” the value was 19400 fluorescence intensity (a.u.); for “TTTTGATTTATAGCAAGACTCTTCCTGAGCATGTCAAGCACGGAGTCACCTAGTGCAG”, 23300 fluorescence intensity (a.u.). For “ACCTCTTAATGAGAATGTGACTCATCCTAATACAACCAACCGGAGTCACCTAGTGCAG” the value was 3580 fluorescence intensity (a.u.); for “ATTTCAGATTAATTTGGTTTGTGTTTACATTTAGTCGCGACGGAGTCACCTAGTGCAG”, 16400 fluorescence intensity (a.u.). As for “CTCTAGATTAGGATGTGCACTTACCTTTAGTCTCCACCTTCGGAGTCACCTAGTGCAG”, the binding signal was 5180 fluorescence intensity (a.u.). For “TTCCTGGGAGATAATTAATTACTTACTCCTACTCCCTCGGCGGAGTCACCTAGTGCAG” the value was 16300 fluorescence intensity (a.u.); for “GTTGATTTTAGATTAGCTGGACCCTGGGCCATGAGGAGATCGGAGTCACCTAGTGCAG”, 23700 fluorescence intensity (a.u.); for “TTAATTAATCTCGTATTGGGTTCTTATACGGACTCTTCTTCGGAGTCACCTAGTGCAG”, 4080 fluorescence intensity (a.u.). With “TTCTCTGACAATATTGTTAAATGCCTGAAATTGGATCACTCGGAGTCACCTAGTGCAG”, the binding signal is 3440 fluorescence intensity (a.u.).

Take “TTAATATTTATAATTAATGTTCAAATATCTAATGTGATAGCGGAGTCACCTAGTGCAG”: the binding signal is 6920 fluorescence intensity (a.u.).

For the sequence “CATGATTAGCCATAAATGCTACAGTAATCCACATTTGCTACGGAGTCACCTAGTGCAG”, the binding signal is 47500 fluorescence intensity (a.u.).

Consider “GTGGTGATTGGTCCTGGCTACGTGTCCCGTTTCCGTCCCACGGAGTCACCTAGTGCAG”, for which the binding signal is 50900 fluorescence intensity (a.u.). For “GCATGTGATTTGTACTTGTTTATTAAGGCTTTGGACATGACGGAGTCACCTAGTGCAG”, the binding signal is 20000 fluorescence intensity (a.u.). To “CCTTAGATTGCTTGCTTAATACTCCCTCCGTATTTTAATACGGAGTCACCTAGTGCAG” belongs 3650 fluorescence intensity (a.u.); to “ACACAAATTAGCTTCCATGATAAACCCACAGGTACAAGAACGGAGTCACCTAGTGCAG”, 9700 fluorescence intensity (a.u.).

As for “GGTTGACCGATACGATTGAAACTCGACTCGCTTAGATAAACGGAGTCACCTAGTGCAG”, the binding signal was 3700 fluorescence intensity (a.u.).

As to “TTAAAACTGATTTAAACATCAACATTTTAAAGTTCAAGCACGGAGTCACCTAGTGCAG”, the binding signal is 18900 fluorescence intensity (a.u.).

In the case of “AAAATTGACTAGAGTGCTCTCACAAAATAAACTAGAGAGACGGAGTCACCTAGTGCAG”, the binding signal is 7000 fluorescence intensity (a.u.). To “TGAAAATATAAATTGCACACCGTCACGTTGATTTAGTACCCGGAGTCACCTAGTGCAG” belongs 4000 fluorescence intensity (a.u.). For “CCTTAATCTCAAATTAAGCTGATAAGTAAGTTTTGGAGCCCGGAGTCACCTAGTGCAG” the value was 9740 fluorescence intensity (a.u.); for “GCTAACATCAAATGACATGGAACAAAGGTCGGAGGAGTCACGGAGTCACCTAGTGCAG”, 4460 fluorescence intensity (a.u.); for “TTCCCTAATGATTAGCCTCTAAAAGACCTATATATTTAGCCGGAGTCACCTAGTGCAG”, 27600 fluorescence intensity (a.u.). Regarding “GGAACTAAATTAAACTGTGTAACGCAAAATTGCGAAGTGGCGGAGTCACCTAGTGCAG”, the binding signal is 24900 fluorescence intensity (a.u.). To “ATGGTTGACTGGCTGGTTCCCTGTGTCTGTCTCACCTTTGCGGAGTCACCTAGTGCAG” belongs 19000 fluorescence intensity (a.u.). For “GAAGATTGAGCTGTTTATATGGCAATCTGTGGTTCAAGGCCGGAGTCACCTAGTGCAG” the value was 16900 fluorescence intensity (a.u.); for “GGTGATCAATGACTGAAACGATCGAGAAGGTTAGTCGTTGCGGAGTCACCTAGTGCAG”, 7930 fluorescence intensity (a.u.); for “TAGATAAATTAAACAACTAACCAAAATATGTTACGTCCGACGGAGTCACCTAGTGCAG”, 6260 fluorescence intensity (a.u.). Turning to “TTTCTTAATCACGTCATTTATTCAATTTGACTTAGCCCGGCGGAGTCACCTAGTGCAG”, the binding signal was 15600 fluorescence intensity (a.u.).

Take “GGTTGACAGTAAATTCCCCAAATGGCTTTGACAGACAAATCGGAGTCACCTAGTGCAG”: the binding signal is 19400 fluorescence intensity (a.u.). For the sequence “GTAACAGGTAAACTGAAGATTACAGTGACGCATATTCACACGGAGTCACCTAGTGCAG”, the binding signal is 4460 fluorescence intensity (a.u.). To “TAGCTCCAAATCATTTATAGTCAATGTAATAGCCAATTCACGGAGTCACCTAGTGCAG” belongs 4170 fluorescence intensity (a.u.); to “ATAAACTACATTCTAACTAAAACAGTAATATTGATGGCCACGGAGTCACCTAGTGCAG”, 3530 fluorescence intensity (a.u.). In the case of “GACGATTTAATCACAAGAATTTTGAGTATCTTGCACTCGTCGGAGTCACCTAGTGCAG”, the binding signal is 3250 fluorescence intensity (a.u.). To “TTGTGATTAGCCACATCAACCAAAAGCCTGTGTGTTTTGTCGGAGTCACCTAGTGCAG” belongs 41900 fluorescence intensity (a.u.).

On to “GGTAAATATAATAAATTATTGATCTAACAACTTGAAATTACGGAGTCACCTAGTGCAG”, for which the binding signal was 3460 fluorescence intensity (a.u.).
